# The supplement of paper PMC8728848
# Some of the results follow.
# Assays:
# Experiment in all cases: glycan array binding signal (z-score within array); higher = stronger binding
# Conditions in all cases: glycan notation: IUPAC condensed, linker removed
# GlcNAc(b1-3)Man = target: GlcNAc(b1-3)Man
# In short: (§1)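 The binding signal is a Z-score computed within each array and averaged over linkers. Arrays of the same protein sequence at different concentrations or buffers were also averaged together. Data originate from 3228 arrays in the Consortium for Functional Glycomics database, kept only where the protein sequence was available.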
# [1] = target: GlcNAc(b1-3)[GlcNAc(b1-4)][GlcNAc(b1-6)]GlcNAc
# In short: as §1
# [2] = target: GlcNAc(b1-3)[GlcNAc(b1-6)]Gal(b1-4)GlcNAc
# In short: as §1
# [3] = target: GlcNAc(b1-3)[GlcNAc(b1-6)]GalNAc
# In short: as §1
# [4] = target: GlcNAc(b1-4)Gal(b1-4)GlcNAc
# In short: as §1
# GlcNAc(b1-4)GlcNAc = target: GlcNAc(b1-4)GlcNAc
# In short: as §1
# [5] = target: GlcNAc(b1-4)GlcNAc(b1-4)GlcNAc
# In short: as §1
# [6] = target: GlcNAc(b1-4)GlcNAc(b1-4)GlcNAc(b1-4)GlcNAc(b1-4)GlcNAc
# In short: as §1
# [7] = target: GlcNAc(b1-4)GlcNAc(b1-4)GlcNAc(b1-4)GlcNAc(b1-4)GlcNAc(b1-4)GlcNAc
# In short: as §1
# [8] = target: GlcNAc(b1-4)[GlcNAc(b1-6)]GalNAc
# In short: as §1
# [9] = target: GlcNAc(b1-6)Gal(b1-4)GlcNAc
# In short: as §1
# GlcNAc(b1-6)GalNAc = target: GlcNAc(b1-6)GalNAc
# In short: as §1
# [10] = target: GlcNAc6S(b1-3)Gal(b1-4)GlcNAc
# In short: as §1
# Kdn(a2-3)Gal(b1-3)GalNAc = target: Kdn(a2-3)Gal(b1-3)GalNAc
# In short: as §1
# Kdn(a2-3)Gal(b1-3)GlcNAc = target: Kdn(a2-3)Gal(b1-3)GlcNAc
# In short: as §1
# Kdn(a2-3)Gal(b1-4)Glc = target: Kdn(a2-3)Gal(b1-4)Glc
# In short: as §1
# Kdn(a2-3)Gal(b1-4)GlcNAc = target: Kdn(a2-3)Gal(b1-4)GlcNAc
# In short: as §1
# [11] = target: Kdn(a2-3)Gal(b1-4)[Fuc(a1-3)]GlcNAc
# In short: as §1
# Kdn(a2-6)Gal(b1-4)GlcNAc = target: Kdn(a2-6)Gal(b1-4)GlcNAc
# In short: as §1
# [12] = target: Man(a1-2)Man(a1-2)Man(a1-3)Man
# In short: as §1
# [13] = target: Man(a1-2)Man(a1-2)Man(a1-6)[Man(a1-3)]Man
# In short: as §1
# Man(a1-2)Man(a1-3)Man = target: Man(a1-2)Man(a1-3)Man
# In short: as §1
# [14] = target: Man(a1-2)Man(a1-3)[Man(a1-2)Man(a1-6)]Man
# In short: as §1
# [15] = target: Man(a1-2)Man(a1-3)[Man(a1-2)Man(a1-6)]Man(a1-6)[Man(a1-2)Man(a1-2)Man(a1-3)]Man
# In short: as §1
# [16] = target: Man(a1-2)Man(a1-3)[Man(a1-2)Man(a1-6)]Man(a1-6)[Man(a1-2)Man(a1-2)Man(a1-3)]Man(b1-4)GlcNAc(b1-4)GlcNAc
# In short: as §1
# [17] = target: Man(a1-2)Man(a1-3)[Man(a1-6)]Man(a1-6)[Man(a1-2)Man(a1-3)]Man(b1-4)GlcNAc(b1-4)GlcNAc
# In short: as §1
# [18] = target: Man(a1-2)Man(a1-6)[Man(a1-3)]Man(a1-6)[Man(a1-2)Man(a1-2)Man(a1-3)]Man
# In short: as §1
# [19] = target: Man(a1-2)Man(a1-6)[Man(a1-3)]Man(a1-6)[Man(a1-2)Man(a1-2)Man(a1-3)]Man(b1-4)GlcNAc(b1-4)GlcNAc
# In short: as §1
# Man(a1-3)[Man(a1-6)]Man = target: Man(a1-3)[Man(a1-6)]Man
# In short: as §1
# [20] = target: Man(a1-3)[Man(a1-6)]Man(a1-6)[Man(a1-2)Man(a1-3)]Man(b1-4)GlcNAc(b1-4)GlcNAc
# In short: as §1
# [21] = target: Man(a1-3)[Man(a1-6)]Man(a1-6)[Man(a1-3)]Man
# In short: as §1
# [22] = target: Man(a1-3)[Man(a1-6)]Man(a1-6)[Man(a1-3)]Man(b1-4)GlcNAc(b1-4)GlcNAc
# In short: as §1
# [23] = target: Man(a1-3)[Man(a1-6)]Man(b1-4)GlcNAc(b1-4)GlcNAc
# In short: as §1
# [24] = target: Man(a1-3)[Man(a1-6)]Man(b1-4)GlcNAc(b1-4)[Fuc(a1-6)]GlcNAc
# In short: as §1
# Man(a1-6)Man = target: Man(a1-6)Man
# In short: as §1
# Man(b1-4)GlcNAc = target: Man(b1-4)GlcNAc
# In short: as §1
# MurNAc(b1-4)GlcNAc = target: MurNAc(b1-4)GlcNAc
# In short: as §1
# Neu5Ac(a2-3)Gal = target: Neu5Ac(a2-3)Gal
# In short: as §1
binder,measurement,setting,value
B160 (Bifidobacterium sp) (protein) MVSHNKRIVAALAAVAAMGIGLAGCGGSDTAGDTKSGSDGGVVNITYMHRLPDSEGMTLVNDIVAKWNKEHPNIQVKATKFDGNAADMIKKLETDVKAGNAPDLAQVGYAEVPEVFTKGLLQDVTDEAAKYKDDFASGPFALMQVDGKTYGLPQDTGPLTYFYNAAEFEKLGITVPKTADELIETAKKTAAQGKYIMTFTPDEAMMMMSGQAGASGPWYKVDGNSWVVNTQTKGSKAVADVYQQLIDNKAALTNPRWDASFDNSIQSGQLIGTVAAAWEAPLFIDSAGGTGAGEWKVTQLGDWFGNGTKTGANGGSGVAVLKGSKHPAEAMEFLDWFNTQVDDLVSQGLVVAATTADAKTPQKWSDYFSGQDVMAEFKTANDNMGDFTYMPGFSAVGAAMKQTAAKAADGSAKVSDVFDTAQKTSVDTLKNLGLSVKE,glycan array binding signal (z-score),GlcNAc(b1-3)Man,-0.156
same,glycan array binding signal (z-score),[1],-0.174
same,glycan array binding signal (z-score),[2],-0.156
same,glycan array binding signal (z-score),[3],-0.163
same,glycan array binding signal (z-score),[4],-0.161
same,glycan array binding signal (z-score),GlcNAc(b1-4)GlcNAc,-0.184
same,glycan array binding signal (z-score),[5],-0.167
same,glycan array binding signal (z-score),[6],-0.164
same,glycan array binding signal (z-score),[7],-0.174
same,glycan array binding signal (z-score),[8],-0.173
same,glycan array binding signal (z-score),[9],-0.148
same,glycan array binding signal (z-score),GlcNAc(b1-6)GalNAc,-0.184
same,glycan array binding signal (z-score),[10],-0.166
same,glycan array binding signal (z-score),Kdn(a2-3)Gal(b1-3)GalNAc,-0.125
same,glycan array binding signal (z-score),Kdn(a2-3)Gal(b1-3)GlcNAc,-0.172
same,glycan array binding signal (z-score),Kdn(a2-3)Gal(b1-4)Glc,-0.184
same,glycan array binding signal (z-score),Kdn(a2-3)Gal(b1-4)GlcNAc,-0.178
same,glycan array binding signal (z-score),[11],-0.125
same,glycan array binding signal (z-score),Kdn(a2-6)Gal(b1-4)GlcNAc,-0.156
same,glycan array binding signal (z-score),[12],-0.159
same,glycan array binding signal (z-score),[13],-0.142
same,glycan array binding signal (z-score),Man(a1-2)Man(a1-3)Man,-0.194
same,glycan array binding signal (z-score),[14],-0.183
same,glycan array binding signal (z-score),[15],-0.161
same,glycan array binding signal (z-score),[16],-0.145
same,glycan array binding signal (z-score),[17],-0.171
same,glycan array binding signal (z-score),[18],-0.178
same,glycan array binding signal (z-score),[19],-0.164
same,glycan array binding signal (z-score),Man(a1-3)[Man(a1-6)]Man,-0.135
same,glycan array binding signal (z-score),[20],-0.141
same,glycan array binding signal (z-score),[21],-0.201
same,glycan array binding signal (z-score),[22],-0.142
same,glycan array binding signal (z-score),[23],-0.17
same,glycan array binding signal (z-score),[24],-0.146
same,glycan array binding signal (z-score),Man(a1-6)Man,-0.157
same,glycan array binding signal (z-score),Man(b1-4)GlcNAc,-0.161
same,glycan array binding signal (z-score),MurNAc(b1-4)GlcNAc,-0.171
same,glycan array binding signal (z-score),Neu5Ac(a2-3)Gal,-0.174
